From PubChem BioAssay AID686979 (National Center for Advancing Translational Sciences (NCATS), 2013)
The campaign covered roughly 420,000 compounds. About 50,000 (12%) were called active. Inconclusive means that the source gave no clear call. Such entries were picked first, then a sample of the others. Calls follow the shape of the dose curve; as a rule, active = well fitted inhibition curve with a large enough effect; inconclusive = small, poorly fitted or top-dose-only effect; inactive = flat fitted curve, though single readings scatter. No potency is given beside an inconclusive call; the fits are too rough.

Assay: qHTS for Inhibitors of human tyrosyl-DNA phosphodiesterase 1 (TDP1): qHTS in cells in presence of CPT; also: nearly all actives have a fitted effect of over 55% in size
Details: chicken DT40 Tdp1-/-;hTDP1 cells + 20 nM CPT, ATP luminescence, 48 h; activity change, negative = growth inhibition: at 46.2 µM (top of the series)
How it was run: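 Chicken DT40 Tdp1-/- cells complemented with human TDP1, 400 cells/well, exposed to compounds plus 20 nM camptothecin for at least 48 h at 37 C; viability read as ATP content by CellTiter-Glo luminescence.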
% is scaled to controls: 0 for no effect and ±100 for the full control effect; potency is read from the fitted curve at half-maximal effect; tags tell the direction and shape of the fitted curve.

Row | Compound | activity change, negative = growth inhibition | Potency
1 | COc1ccc(S(=O)(=O)N(CCC(N)=O)Cc2ccco2)cc1OC | inactive: 7% | –
2 | COc1ccc(C(=O)Nc2ccnn2C2CCN(Cc3ccc4nonc4c3)CC2)cc1 | – | inconclusive [inhibitor, single point]
3 | CC(C)CN(C(=O)COC(=O)CSc1ccccc1)c1c(N)n(Cc2ccccc2)c(=O)[nH]c1=O | inactive: -28.6% | –
4 | O=C1NC(=S)N/C1=C/c1cccc([N+](=O)[O-])c1O | inactive: 2.86% | –
5 | O=C(N/N=C/c1ccco1)c1ccc(NC(=O)c2ccccc2Cl)cc1 | inactive: -6.64% | –
6 | O=C(O)c1ccc2c(=O)n3c(nc2c1)/C(=C/c1ccc(OC(F)F)cc1OC(F)F)CC3 | – | inconclusive [inhibitor, single point]
7 | CCOC(=O)C1=C(C)N=c2s/c(=C\c3ccc(OC(C)=O)cc3)c(=O)n2C1/C=C/c1ccccc1 (centres undefined) | – | inconclusive [inhibitor, single point]
8 | CC1OC(CCc2cccc(Cl)c2)Cc2[nH]c(=S)[nH]c(=O)c21 (centres undefined) | – | inconclusive [inhibitor, single point]
9 | CCc1ccc(NC(=O)N(Cc2ccco2)C(C)c2cccs2)cc1 (centres undefined) | – | inconclusive [inhibitor, single point]
10 | COc1ccc(C)cc1NC(=O)CCc1c(C)nn(-c2ccc(N3CCOCC3)nn2)c1C | – | inconclusive [inhibitor, single point]
11 | COc1cccc(-c2ccc3c(N)c(C(=O)c4ccc(Br)cc4)sc3n2)c1 | – | active: 14.6 µM
12 | COc1cccc(C(O)c2nc(-c3ccc(C)c(C)c3)cs2)c1 (centres undefined) | – | inconclusive [inhibitor, single point]
13 | COC(=O)c1ccc(CSc2nc3sc4c(c3c(=O)n2C)CCCC4)o1 | – | inconclusive [inhibitor, partial curve, poor fit]
14 | CCn1cc(S(=O)(=O)c2cccc(Cl)c2)c(=O)c2cc(F)c(N3CCC(C)CC3)cc21 | inactive: -4.4% | –
15 | COc1ccc(N2C(=O)CC(N3CCC(c4nc5ccccc5[nH]4)CC3)C2=O)cc1 (centres undefined) | – | inconclusive [inhibitor, single point]
16 | Cc1ccc(-n2nc(C)c3c(C)cc(=O)n(CC(=O)N4CCCc5ccccc54)c32)cc1 | inactive: -6.98% | –
17 | COc1ccc2c(COC(=O)CCS(=O)(=O)c3ccc(C)cc3)cc(=O)oc2c1 | inactive: 4.73% | –
18 | CCn1nccc1NC(=O)c1ccc2sc([C@@H]3O[C@H](CO)[C@H](O)[C@H](O)[C@H]3O)nc2c1 | inactive: 0.542% | –
19 | Cc1ccc(N(C(=O)c2snc(C(N)=O)c2N)C(C(=O)NCc2ccccc2)c2ccncc2)c(C)c1 (centres undefined) | – | inconclusive [inhibitor, partial curve, poor fit]
20 | COc1ccc(Cl)cc1NC(=O)CN(C)S(=O)(=O)c1cccs1 | inactive: -5.64% | –
21 | COC(=O)N/N=C/c1ccccc1Cl | inactive: 2% | –
22 | Cc1c(C#N)c2ccccc2n1CC(=O)O | inactive: -1.57% | –
23 | O=C1NC[C@H](CCCCN2C[C@H](Cc3ccccc3)N(CCC3CCCCC3)C(=O)C2=O)N(Cc2ccccc2)C1=O | – | inconclusive [inhibitor, single point]
24 | CC1=C(C(=O)OCc2ccccc2)C(c2cccc(F)c2)NC(=O)N1 (centres undefined) | inactive: -12.1% | –
25 | CCNC(=O)C1(C)CCCN(Cc2csc3ccccc23)C1 (centres undefined) | – | inconclusive [inhibitor, single point]

Row | Compound | activity change, negative = growth inhibition | Potency
26 | N#CC(C#N)=c1ccc2c(c1)N1C(c3ccccc3)=CC(c3ccccc3)C3CCCCC31N=2 (centres undefined) | – | inconclusive [inhibitor, single point]
27 | O=C(CN1c2ccccc2S(=O)(=O)c2ccccc21)NCc1ccc(F)cc1 | inactive: -2.17% | –
28 | COCC(=O)N1CCC[C@@]2(CCN(C(=O)Nc3ccc(OC)cc3)C2)C1 | inactive: -10.8% | –
29 | CN(Cc1ccccc1)Cc1c[nH]c2ccccc12 | – | active: 5.8 µM
30 | O=C(COCc1cc(-c2cccs2)on1)NCc1ccc(Cl)cc1 | inactive: -2.78% | –
31 | CC1(c2ccc3ccccc3c2)NC(=O)N(CC(=O)Nc2cccc(S(=O)(=O)N3CCOCC3)c2)C1=O (centres undefined) | – | inconclusive [inhibitor, single point]
32 | COc1cc(=O)n2c(c1C(=O)N1CCc3ccccc3C1)CCN(Cc1ccc(CO)o1)CC2 | inactive: 11.7% | –
33 | COc1ccccc1C(=O)Nc1ncc2c(n1)CC(c1ccco1)CC2=O (centres undefined) | – | inconclusive [inhibitor, partial curve, poor fit]
34 | O=[N+]([O-])c1cc(Cl)ccc1N1CCN(c2ccccc2O)CC1 | inactive: 0.294% | –
35 | CCc1cc(CNC(=O)c2ccc(OC3CCN(CCc4ccccc4)CC3)cc2)on1 | – | inconclusive [inhibitor, single point]
36 | CCOC(=O)c1c(C)nc2c(c1C)/C(=N/O)CC(C)(C)C2 | – | inconclusive [inhibitor, partial curve, poor fit]
37 | COc1ccc(Cl)cc1-c1cc(C(=O)Nc2ccc(Br)cc2)[nH]n1 | – | inconclusive [inhibitor, single point]
38 | Cc1cc(C)c(NS(=O)(=O)c2ccc(-c3cnc(C4CC4)o3)cc2)c(C)c1 | – | active: 0.58 µM
39 | Cc1ccc(S(=O)(=O)CCC(=O)OCC(=O)NCc2ccccc2)cc1 | inconclusive: -30.2% [inhibitor] | –
40 | CCN1CCN(c2ccc(NC(=O)c3cccc(OCc4ccccc4)c3)cc2)CC1 | – | inconclusive [inhibitor, single point]
41 | COc1cccc(CNC(=O)Cc2csc3ccccc23)c1OC | – | inconclusive [inhibitor, single point]
42 | COc1ccc(C)cc1NC(=O)c1cc(S(=O)(=O)N2CCCCC2)ccc1N1CCOCC1 | – | inconclusive [inhibitor, single point]
43 | Cc1cc(C)c(CC(=O)c2ccccc2)c(C)c1 | inactive: -28.3% | –
44 | CC1CCCCC1NC(=O)CCn1c(=O)sc2ccccc21 (centres undefined) | inactive: 4.56% | –
45 | COc1ccccc1CNC(=O)C1CC2Cn3c(nc4cc(Cl)c(Cl)cc43)C2N1C (centres undefined) | – | inconclusive [inhibitor, single point]
46 | CSc1nc2ccc(Br)cc2[nH]1 | – | inconclusive [inhibitor, single point]
47 | CC1CCCCC12NC(=O)N(CC(=O)Nc1nccs1)C2=O (centres undefined) | inactive: 17.9% | –
48 | COC[C@@H]1CCCN1[C@@H]1CS(=O)(=O)N[C@H]1COCc1ccccc1 | inactive: -9.09% | –
49 | CCCOC(=O)c1c(NC(=O)C2c3ccccc3Oc3ccccc32)sc2c1CCCC2 | – | inconclusive [inhibitor, partial curve]
50 | O=C(CSc1nnc(NCc2ccccc2)s1)c1ccco1 | inactive: -24.7% | –

Row | Compound | activity change, negative = growth inhibition | Potency
51 | Cc1ccc(C#CC[N+](C)(C)CC#Cc2ccccc2)cc1 | – | active: 2.06 µM
52 | Cc1ccc(SC(C)C(=O)NCc2ccncc2)cc1 (centres undefined) | – | inconclusive [inhibitor, single point]
53 | COc1ccc(S(=O)(=O)N2CCCC2CNC(=O)C(=O)Nc2ccc(C)cc2)cc1 (centres undefined) | – | inconclusive [inhibitor, single point]
54 | COc1cccc(OCc2nc3ccccc3n2Cc2ccccc2C)c1 | – | active: 20.6 µM
55 | Cc1cc(Cl)ccc1OCC(=O)N1CCOc2ccc(CN3C[C@@H](C)O[C@@H](C)C3)cc2C1 | inactive: -2.79% [at 9.04 µM] | –
56 | Nc1ccc(-c2cc3ccccc3oc2=O)cc1 | inactive: -7.72% | –
57 | CC(=O)Nc1ccc(C(=O)CSc2nnc(-c3ccccc3F)n2CCc2ccccc2)cc1 | – | inconclusive [inhibitor, single point]
58 | Cc1cc(CNC(=O)c2cccc3c2C(=O)c2ccc(-c4ccc(F)cc4OCc4ccccc4)cc2S3(=O)=O)c(C(F)(F)F)o1 | – | inconclusive [inhibitor, single point]
59 | O=C(CSc1nnnn1C1CCCCC1)N1CCN(C(=O)c2ccco2)CC1 | inactive: -11.1% | –
60 | Cc1ccc(C2(CCN)CCOC(C(C)C)C2)cc1 (centres undefined) | – | active: 23.1 µM
61 | COc1ccc(NC(=O)CCCSc2nc(-c3ccco3)cc(C(F)(F)F)n2)c(OC)c1 | – | inconclusive [inhibitor, single point]
62 | CCOCCCNc1nc2c(C)cccn2c(=O)c1/C=C1\SC(=S)N(C(C)CC)C1=O (centres undefined) | – | inconclusive [inhibitor, single point]
63 | O=C(O)c1ccc(Br)cn1 | inactive: -5.88% | –
64 | COc1ccc(C)cc1NC(=O)C1CCCN(S(=O)(=O)c2cccnc2)C1 (centres undefined) | inactive: -22.4% | –
65 | Cc1ccc(OCC(=O)Nc2ccc(C)c(S(=O)(=O)N3CCCCC3)c2)c([N+](=O)[O-])n1 | – | inconclusive [inhibitor, single point]
66 | c1nc(NC2CCNCC2)c2cc(-c3ccoc3)ccc2n1 | – | inconclusive [inhibitor, single point]
67 | O=C(COc1ccc(Cl)cc1Cl)Nc1ccc2nc3n(c(=O)c2c1)CCCC3 | – | inconclusive [inhibitor, single point]
68 | CCNS(=O)(=O)c1ccc(CCC(=O)N2CCN(c3cc(Cl)ccc3C)CC2)cc1 | – | active: 13 µM
69 | COc1ccc(N=Cc2c(OC)ccc3ccccc23)cc1 | inactive: 3.25% | –
70 | C=CCNC(=S)NCc1ccc(CNC(=S)NCC=C)cc1 | inactive: 0.395% | –
71 | Cc1cccc(NC(=O)c2ccc(N3C(=O)C4CCCCC4C3=O)cc2)c1C (centres undefined) | inactive: -4.92% | –
72 | Cc1cccc(C)c1NC(=O)CN(Cc1ccccc1)Cc1ccccc1 | – | inconclusive [inhibitor, single point]
73 | CC1=Nc2ccccc2/C1=C\c1sc(Nc2ccc(C)cc2)nc1O | – | active: 0.58 µM
74 | COc1ccc(-c2noc(N3CCC(C(=O)N4CCN(c5ccccn5)CC4)CC3)n2)cc1 | – | active: 23.1 µM
